Screen size: about 110,000 compounds; about 230 (0.21%) showed an effect of 50% or more. The list shows a part of the results.
These molecules were tested against DPAP1 (Plasmodium falciparum, UniProt Q8IIJ9) (assay: primary screen, percent inhibition; read by cleavage of a fluorogenic dipeptide substrate; higher = more effect of the substance).
Set-up: species or system P. falciparum D10 trophozoite lysates; single well
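Further: 30 min substrate incubation versus DMSO and 10 µM JCP410 controls.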

DPAP1, sequence (Q8IIJ9 whole entry, looked up): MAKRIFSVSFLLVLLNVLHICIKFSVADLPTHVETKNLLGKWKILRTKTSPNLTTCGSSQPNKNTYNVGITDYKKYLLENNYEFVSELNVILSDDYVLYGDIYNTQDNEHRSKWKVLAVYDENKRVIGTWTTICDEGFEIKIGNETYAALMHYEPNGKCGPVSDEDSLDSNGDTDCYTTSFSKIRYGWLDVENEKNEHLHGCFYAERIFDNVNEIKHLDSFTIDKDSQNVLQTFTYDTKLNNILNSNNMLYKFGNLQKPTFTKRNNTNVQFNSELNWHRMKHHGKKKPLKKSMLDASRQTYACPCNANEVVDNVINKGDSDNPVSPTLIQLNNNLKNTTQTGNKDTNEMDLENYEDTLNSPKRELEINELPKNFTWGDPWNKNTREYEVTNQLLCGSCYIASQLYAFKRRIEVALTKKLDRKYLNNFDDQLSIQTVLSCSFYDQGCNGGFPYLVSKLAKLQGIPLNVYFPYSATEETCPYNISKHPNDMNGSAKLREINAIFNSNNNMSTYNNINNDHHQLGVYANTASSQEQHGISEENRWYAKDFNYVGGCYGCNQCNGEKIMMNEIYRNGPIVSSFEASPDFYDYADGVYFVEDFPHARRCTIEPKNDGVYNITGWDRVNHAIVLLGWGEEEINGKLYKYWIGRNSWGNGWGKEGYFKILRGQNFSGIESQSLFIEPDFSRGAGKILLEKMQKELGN

Row | SMILES | % Inhibition @ 10 uM [%]
1 | N=C1/C(=C\c2ccc(SCc3ccco3)o2)C(=O)N=C2SC(c3cccs3)=NN12 | 0.458
2 | CC1CCN(C(c2cccs2)c2ccc3cccnc3c2O)CC1 (centres unmarked) | -12
3 | O=C(Nc1ccc(Cl)c(C(=O)O)c1)NC1CCCCC1 | 3.56
4 | O=C(Cn1ncc2c1-c1ccccc1OC2)NCc1ccccc1Cl | 0.981
5 | O=C(CCC(=O)N1CCc2ccccc2C1)N1CC=C(c2c[nH]c3ccccc23)CC1 | -3.34
6 | CCC(=O)c1ccc2c(c1)OCCOCCOc1cc(C(=O)CC)ccc1OCCOCCO2 | -1.28
7 | O=C(Cn1nc(C(F)(F)F)cc1C1CC1)Nc1cnn(Cc2ccc(F)cc2)c1 | -4.72
8 | Cc1ccc(OCC(=O)N(Cc2nc(-c3ccc(C)cc3)no2)C(C)C)cc1 | 0.809
9 | Clc1ccc(CN2CCN(C/C=C/c3ccccc3)CC2)cc1Cl | 1.48
10 | CC1(C)CC(=O)c2cnc(NC(=O)Nc3ccc(Cl)c(Cl)c3)nc2C1 | -8.2
11 | Cc1cccc(C)c1NC(=O)CCCC(=O)O | -3.77
12 | CC(=O)N1N=C(C(F)(F)F)CC1(O)c1ccncc1 (centres unmarked) | 1.72
13 | CC(C)(C)c1cc(C(C)(C)C)cc(S(N)(=O)=O)c1 | -1.69
14 | Cc1cc(CN2CCN(C3CCCCC3)CC2)cs1 | -4.51
15 | Cn1c2ccccc2c2cnn(CC(=O)N3CCC4(CC3)OCCO4)c(=O)c21 | -1.92
16 | Cc1nnc(C)n1/N=C\c1c(F)cccc1Cl | 1.39
17 | c1ccc(CN2CCn3c4c(c5ccccc53)CCCC42)cc1 (centres unmarked) | -1.25
18 | CCCc1cc(O)n2nc(NC(=O)CCc3ccccc3)nc2n1 | -1.31
19 | CCS(=O)(=O)c1nc(S(=O)(=O)c2ccc(Cl)cc2)c(NCCOC)s1 | -9.79
20 | CCSc1nncc(-c2ccccc2)n1 | -2.48
21 | Cc1ccc2cc3cc(C(=O)NC4CCCCC4)oc3nc2c1 | -1.54
22 | O=C1C2C(c3ccccc3)OC3(C(=O)c4ccccc4C3=O)C2C(=O)N1c1ccc(F)cc1 (centres unmarked) | 3.74
23 | CC(=O)Nc1ccc(S(=O)(=O)Nc2cccc(Cl)c2C)cc1 | 1.63
24 | CC1CN(Cc2ccc(Br)cc2)CC(C)O1 (centres unmarked) | 0.273
25 | Cc1nccn1CCCNC(=O)c1nc(-c2cccs2)no1 | 2.65
26 | CC(=O)c1ccc(OCCOc2ccc([N+](=O)[O-])cc2)cc1 | -2.62
27 | O=S(=O)(c1c(F)cccc1F)N1CCN(Cc2ccc3c(c2)OCO3)CC1 | -12.8
28 | CC(=O)c1c(CC(=O)O)nn(-c2nc3ccccc3s2)c1O | -5.62
29 | O=C(c1ccccc1Br)N1CCN(CCN2C(=O)c3cccc4cccc(c34)C2=O)CC1 | 2.36

— article PMC6919601, “Identification of Plasmodium dipeptidyl aminopeptidase allosteric inhibitors by high throughput screening” (PLoS ONE, 2019)
